Molecules are shown by their SMILES. Screen size: about 150,000 compounds; about 540 (0.36%) showed an effect of 50% or more. This is one part of the list.

The assay has as its system Plasmodium falciparum. Briefly: Primary screen in NF54 nanoGlo assay, in single point, at 2uM, 72h; a lower Z score goes with more inhibition. The assay is classed as functional, Erythrocyte. Particulars: timepoint 72 hour.
Regarding `CC1(C)OC[C@H](C(O)CNc2ccncc2C(F)(F)F)O1` (stereo partly specified), the “% Inhibition” value came to 3% and the Z score was -0.54.
For `CCC(C)(CCO)NC(=O)NCC(C)c1ccsc1` (stereo unspecified), the “% Inhibition” value is reported as -2% and the Z score was determined as 0.32.
On to `Fc1cc(Cl)ccc1CNCCc1cnccn1`, for which the “% Inhibition” value was -5% and the Z score came out at 0.7.
`CC(C)c1ocnc1C(=O)N[C@H]1CCO[C@@H]1c1cnn(CC2CC2)c1`: the “% Inhibition” value was 0% and the Z score is listed as -0.03.
With `Cc1cc(-c2ccc(C)c(S(=O)(=O)CCC(=O)Nc3cccc(Cl)c3)c2)on1`, the “% Inhibition” value is -7% and the Z score was 0.98.
On the same counts, the results for `CN(C)Cc1cc(C[C@@H]2C[C@H](NCc3ccccc3)C2(C)C)no1` are -11% and 1.64.
The like results for `COc1cccc(-c2nnc(-c3cnccn3)[nH]2)c1` were, in that order, -13% and 1.5.
The like results for `Cc1cc(C(=O)N2C[C@@H]3CC[C@H]2CN(Cc2ccccn2)C3)c(C)o1` were, in that order, -3% and 0.56.
As to `Nc1nc(-c2cccc(C(=O)N[C@H]3CCOC3)c2)cc(N2CCCC2)n1`, the “% Inhibition” value is -12% and the Z score turned out to be 1.89.
With `C=C(C)COc1ccccc1CNCCc1[nH]nc2c1CCCC2`, the “% Inhibition” value amounted to 0% and the Z score is on record as -0.04.
In the case of `Cc1c[nH]c(CN(C)Cc2cc(Cl)ccc2OCC(N)=O)n1`, the “% Inhibition” value is on record as -6% and the Z score is given as 1.17.
Regarding `Cc1[nH]c(=O)c(C(=O)NC[C@H]2CCCO2)cc1-c1ccccc1`, the “% Inhibition” value is given as -3% and the Z score came to 0.67.
Consider `Cc1ccc(CC2CN(C(=O)NCc3cnc(C)o3)C2)cc1`, for which the “% Inhibition” value came to 11% and the Z score was -1.3.
As to `CC(=O)c1cccc(NC(=O)N2CCCCCCC2)c1`, the “% Inhibition” value is on record as 2% and the Z score is reported as -0.33.
With `Cc1cc(C)cc([C@H](C)NC(=O)NCc2cnn(C)c2)c1`, the “% Inhibition” value was -1% and the Z score turned out to be 0.1.
The like results for `CCOC(=O)c1ccc(C(=O)O[C@@H](CC(C)C)C(=O)OC)nc1C` were, in that order, -10% and 1.
On the same counts, the results for `O=C1CCCCN1CCCNS(=O)(=O)C1CCC(C(F)(F)F)CC1` (stereo unspecified) are -3% and 0.54.
Regarding `Cc1cccnc1CCNC(=O)N(C)[C@@H](C)c1ccncn1`, the “% Inhibition” value is recorded as -6% and the Z score is on record as 1.12.
Regarding `CC(C)[C@H](NC(=O)c1ccccc1-c1ccccc1)c1ncnn1C`, the “% Inhibition” value was -4% and the Z score is 0.63.
The like results for `O=C(CN1CN(c2ccccc2)C2(CCN(C(=O)Nc3ccc(F)cc3F)CC2)C1=O)Nc1ccc(F)cc1` were, in that order, -4% and 0.65.
The like results for `CC[C@@H](CNC(=NC)NCc1ccnn1C)Oc1cccc(F)c1` were, in that order, -8% and 0.91.
Turning to `CCCN1CC2(CCN(c3ncncc3C(C)C)CC2)C[C@H]1C(=O)O`, the “% Inhibition” value was -10% and the Z score came to 1.12.
On the same counts, the results for `O=C1OC2(CCNCC2)CN1CC(=O)N(Cc1ccccc1)C1CCCC1` are 7% and -1.45.
On the same counts, the results for `c1cc(-c2ccc3c(c2)OCCCO3)n2ncnc2n1` are 10% and -1.23.
Consider `O=C(NCc1cccc(F)c1)N1CCc2[nH]c(-c3cccnc3)nc2C1`, for which the “% Inhibition” value is recorded as 1% and the Z score is given as -0.12.
The like results for `CC(=O)NC[C@H]1CCCN1c1ccccc1` were, in that order, -11% and 2.13.
For `Cc1cc(CN2CCCN(S(=O)(=O)c3ccc(Cl)s3)CC2)no1`, the “% Inhibition” value is on record as -6% and the Z score is listed as 0.86.
`Cc1ccc(-c2ccc(=O)n(CCNC(=O)COc3ccc4c(c3)OCO4)n2)cc1`: the “% Inhibition” value was determined as 3% and the Z score is listed as -0.43.
On to `CC1CC1C(=O)Nc1cc(C2CCC2)nn1C` (stereo unspecified), for which the “% Inhibition” value was found to be 28% and the Z score is listed as -3.15.
The like results for `FC1(F)COCCN(Cc2ncc[nH]2)C1` were, in that order, -6% and 1.28.
`COCCN1CCC([C@H]2c3nc[nH]c3CCN2CC(C)C)CC1`: the “% Inhibition” value is recorded as -1% and the Z score came to 0.14.
The like results for `c1coc(-c2nc(C3CN4CCCC4CO3)no2)c1` (stereo unspecified) were, in that order, -12% and 1.5.
The like results for `CCC(CC(C)CO)Nc1ccc(C#N)cc1F` (stereo unspecified) were, in that order, -15% and 2.14.
The like results for `Oc1cc(C(F)(F)C(F)(F)C(F)(F)C(F)F)n[nH]1` were, in that order, -37% and 4.32.
In the case of `CCc1csc(CNS(=O)(=O)c2ccc(C)s2)n1`, the “% Inhibition” value amounted to 6% and the Z score was -0.86.
On the same counts, the results for `O=C(c1[nH]nc2c1CCCC2)N1CCCC1` are -8% and 1.35.
For `Cn1cc(CC(=O)NS(=O)(=O)Cc2ccc(Cl)c(F)c2)cn1`, the “% Inhibition” value worked out at 0% and the Z score was 0.06.
On the same counts, the results for `Cc1ccccc1NC(=O)CN1CCC2(CC1)N=C(c1cccc(Cl)c1)C(=O)N2` are -3% and 0.32.
On the same counts, the results for `O=C(Cc1ccccc1Br)N[C@H]1CCc2n[nH]c(=O)cc2C1` are -13% and 2.2.
`c1ccc(N2CCN(Cc3ccc4c(c3)CNCCO4)CC2)nc1`: the “% Inhibition” value stood at 11% and the Z score is -1.57.
Turning to `COCCS(=O)(=O)NC1CCCC1Cc1ccccc1` (stereo unspecified), the “% Inhibition” value is on record as -9% and the Z score is 1.14.
The like results for `CC1(C)NC(=O)N(Cc2nnsc2Cl)C1=O` were, in that order, -15% and 1.65.
The like results for `O=C(COc1cccc(-n2ccnn2)c1)NC1CC1` were, in that order, -16% and 1.38.

The values are drawn from ChEMBL document CHEMBL4888484, “Replenishing the malaria drug discovery pipeline: Screening and hit evaluation of the MMV Hit Generation Library 1 (HGL1) against asexual blood stage Plasmodium falciparum ,using a nano luciferase reporter read-out” (2022).
